Some of the results follow. Values were computed here from the reads of four pooled replicates and scatter widely.

For the assay, the target named is T1, Pho4 (S. cerevisiae) (UniProt P07270).
T1 sequence: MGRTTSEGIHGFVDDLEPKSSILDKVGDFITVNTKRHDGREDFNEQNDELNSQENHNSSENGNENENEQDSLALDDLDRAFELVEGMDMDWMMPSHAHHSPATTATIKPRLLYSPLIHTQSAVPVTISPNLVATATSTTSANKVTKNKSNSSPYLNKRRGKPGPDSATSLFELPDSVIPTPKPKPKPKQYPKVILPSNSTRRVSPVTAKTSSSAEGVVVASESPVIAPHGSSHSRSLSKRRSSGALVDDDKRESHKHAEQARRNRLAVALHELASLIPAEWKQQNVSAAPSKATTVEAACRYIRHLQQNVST
The assay can be described thus: relative binding free energy (BET-seq); higher = weaker binding. Particulars: reference: library average.
Take TAGTGCACGTGATAAT: the “relative binding free energy” value turned out to be 0.14 kcal/mol.
As for GAGTGCACGTGTCTTG, the “relative binding free energy” value is 0.06 kcal/mol.
To TATGACACGTGGCTGT belongs -0.09 kcal/mol.
As for GGGGACACGTGTCGGG, the “relative binding free energy” value was determined as 0.11 kcal/mol.
Turning to GTCTGCACGTGCTGGT, the “relative binding free energy” value is -0.01 kcal/mol.
For GGGTGCACGTGAGGCT, the “relative binding free energy” value was 0.15 kcal/mol.
Turning to AATGTCACGTGGGGAT, the “relative binding free energy” value was -0.01 kcal/mol.
As for AGAGGCACGTGGAGGC, the figure is -0.13 kcal/mol.
To TAAATCACGTGTTTTT belongs 0.09 kcal/mol.
As for TTCTACACGTGGAGTT, the figure is 0.32 kcal/mol; as for TTCGGCACGTGGTAAG, -0.1 kcal/mol.
Take TGTGGCACGTGGACGG: the “relative binding free energy” value was -0.08 kcal/mol.
For the sequence ACTGACACGTGGTTGG, the “relative binding free energy” value is -0.01 kcal/mol.
For CGATGCACGTGTCGGG, the “relative binding free energy” value was -0.04 kcal/mol.
TGTCGCACGTGGTAGA: the “relative binding free energy” value is -0.16 kcal/mol.
Turning to GGGGGCACGTGATAAC, the “relative binding free energy” value amounted to 0.12 kcal/mol.
As to GTAGGCACGTGGGAGC, the “relative binding free energy” value is -0.13 kcal/mol.
On to TGGCACACGTGGGAAG, for which the “relative binding free energy” value was -0.03 kcal/mol.
Turning to ATATGCACGTGATGAG, the “relative binding free energy” value was found to be 0.11 kcal/mol.
As to CTCGGCACGTGTAGGC, the “relative binding free energy” value was found to be 0.13 kcal/mol.
With AGCGGCACGTGGGGCG, the “relative binding free energy” value was -0.3 kcal/mol.
Regarding GGCGGCACGTGCGGTA, the “relative binding free energy” value was -0.07 kcal/mol.
Take TCGATCACGTGTAAGG: the “relative binding free energy” value amounted to 0.15 kcal/mol.
As for TATGACACGTGGCGAG, the “relative binding free energy” value is -0.01 kcal/mol.
Regarding TCTTGCACGTGTTATG, the “relative binding free energy” value was -0.15 kcal/mol.
For the sequence GGCATCACGTGCGGTG, the “relative binding free energy” value amounted to 0.06 kcal/mol.
For the sequence AGTGGCACGTGGGGGT, the “relative binding free energy” value was -0.26 kcal/mol.
Consider AGGGACACGTGTGCAG, for which the “relative binding free energy” value was -0.02 kcal/mol.
To TTGGGCACGTGGTTTC belongs -0.12 kcal/mol.
For the sequence ATGAGCACGTGTGGTT, the “relative binding free energy” value was found to be 0.07 kcal/mol.
For the sequence TGCGGCACGTGTTTTG, the “relative binding free energy” value was -0.08 kcal/mol.
As for GTTGACACGTGCTTTT, the “relative binding free energy” value was 0.03 kcal/mol.
Regarding CTGGGCACGTGGTTTT, the “relative binding free energy” value is -0.05 kcal/mol.
Consider TGCGGCACGTGTAGGC, for which the “relative binding free energy” value is -0.13 kcal/mol.
For the sequence TTATTCACGTGGAGGT, the “relative binding free energy” value was determined as 0.24 kcal/mol.
Consider AAAGCCACGTGGGTTT, for which the “relative binding free energy” value was -0.05 kcal/mol.
For GCTAGCACGTGGTGTT, the “relative binding free energy” value was -0.06 kcal/mol.
Regarding TTAGTCACGTGGTAAA, the “relative binding free energy” value stood at 0.14 kcal/mol.
Consider GGCAGCACGTGGGGAG, for which the “relative binding free energy” value is -0.15 kcal/mol.
For the sequence GGGTACACGTGGACTT, the “relative binding free energy” value worked out at 0.07 kcal/mol.
As for GAGGTCACGTGTTTCA, the figure is 0.35 kcal/mol.
Regarding TTTCTCACGTGGTTAT, the “relative binding free energy” value came out at 0.22 kcal/mol.
As for AGTTTCACGTGTAACG, the figure is 0.23 kcal/mol; as for GATTTCACGTGTCAGT, 0.28 kcal/mol.
For the sequence CGATGCACGTGGGTAG, the “relative binding free energy” value is -0.2 kcal/mol.
As for TAGTTCACGTGCTGGG, the “relative binding free energy” value is 0.23 kcal/mol.
Turning to TTTGGCACGTGCTGTC, the “relative binding free energy” value was -0.1 kcal/mol.
As to AGAGTCACGTGAAAGT, the “relative binding free energy” value came to 0.36 kcal/mol.
As for TTATTCACGTGTCTAG, the “relative binding free energy” value amounted to 0.19 kcal/mol.
With TCGAACACGTGGGGGA, the “relative binding free energy” value is -0.06 kcal/mol.
Take TTTTACACGTGTTAAA: the “relative binding free energy” value amounted to 0.17 kcal/mol.
For the sequence TAGGACACGTGGATGA, the “relative binding free energy” value is -0.03 kcal/mol.
As for AGTGGCACGTGCCTGT, the figure is -0.19 kcal/mol; as for TTGTACACGTGTGGTA, 0.13 kcal/mol.
For the sequence GTAGCCACGTGTTGGG, the “relative binding free energy” value worked out at 0.01 kcal/mol.
As to AAACACACGTGTGGGG, the “relative binding free energy” value worked out at 0.04 kcal/mol.
Take GGCTGCACGTGGGGTA: the “relative binding free energy” value is -0.18 kcal/mol.
CGGGACACGTGTTTTA: the “relative binding free energy” value was found to be 0.31 kcal/mol.
To ATATTCACGTGTTTGC belongs 0.23 kcal/mol.
Regarding GGGGCCACGTGGACGG, the “relative binding free energy” value is -0.18 kcal/mol.
As for TGTTTCACGTGTAGCT, the figure is 0.27 kcal/mol; as for TAGGGCACGTGGAGAT, 0.06 kcal/mol; as for TAGTACACGTGCAGTT, 0.09 kcal/mol.
Turning to GACATCACGTGTTTTG, the “relative binding free energy” value was 0.16 kcal/mol.
Regarding GACGTCACGTGTCGGG, the “relative binding free energy” value is 0.24 kcal/mol.
Take TTTGGCACGTGTTAAC: the “relative binding free energy” value is -0.05 kcal/mol.
As for TATGTCACGTGGTAGC, the figure is 0.12 kcal/mol; as for ACTGGCACGTGCTTGT, -0.11 kcal/mol; as for TCTTTCACGTGGTATG, 0.29 kcal/mol.
Take GGTAACACGTGGGTAG: the “relative binding free energy” value is -0.04 kcal/mol.
Consider TGGTGCACGTGGATCC, for which the “relative binding free energy” value amounted to 0.11 kcal/mol.
Regarding ATATACACGTGGGGTA, the “relative binding free energy” value was -0.17 kcal/mol.
As for TTCTGCACGTGATGGG, the figure is 0.12 kcal/mol; as for TCGGGCACGTGAGTAG, 0.16 kcal/mol.
Consider AACGGCACGTGGTGCG, for which the “relative binding free energy” value was -0.14 kcal/mol.
To AGAATCACGTGCGGTG belongs 0.26 kcal/mol; to AGGTGCACGTGGCTAT, -0.25 kcal/mol.
To AGTGTCACGTGTCATA belongs -0.06 kcal/mol; to AGTAGCACGTGTTGGG, -0.03 kcal/mol.
Take ATTGTCACGTGTTCTT: the “relative binding free energy” value was determined as 0.06 kcal/mol.
In the case of GTATTCACGTGTGACT, the “relative binding free energy” value is 0.39 kcal/mol.
To TGGGGCACGTGTGTGA belongs -0.15 kcal/mol; to TGCGGCACGTGGGGCA, -0.19 kcal/mol.
As for GGGTCCACGTGGAGTA, the figure is -0.07 kcal/mol; as for GCTATCACGTGGTGTG, 0.06 kcal/mol; as for TAATGCACGTGGCGTT, -0.13 kcal/mol.
As for TATAGCACGTGATCGT, the figure is 0 kcal/mol.
On to ATGCGCACGTGGTTAT, for which the “relative binding free energy” value is -0.2 kcal/mol.
Regarding AATGTCACGTGGGTGT, the “relative binding free energy” value came to 0 kcal/mol.
On to CGCGTCACGTGCGGGG, for which the “relative binding free energy” value was 0 kcal/mol.
Consider GAAGACACGTGGGGCT, for which the “relative binding free energy” value was -0.03 kcal/mol.
For TATGCCACGTGTTAGT, the “relative binding free energy” value amounted to 0.02 kcal/mol.
Turning to TAGTTCACGTGTTTGA, the “relative binding free energy” value came to 0.29 kcal/mol.
As for GTTTGCACGTGGCTGA, the figure is 0.1 kcal/mol.
ACTGACACGTGAGGTG: the “relative binding free energy” value turned out to be 0.23 kcal/mol.
Consider TTAAACACGTGTAGGA, for which the “relative binding free energy” value came out at 0.06 kcal/mol.
As for GTTATCACGTGGAAAT, the figure is 0.31 kcal/mol.
Consider ACATGCACGTGCGGTG, for which the “relative binding free energy” value is -0.1 kcal/mol.
To TGGCTCACGTGGGGTG belongs -0.04 kcal/mol.
On to TGGTTCACGTGATTTA, for which the “relative binding free energy” value came to 0.44 kcal/mol.
As to ATTCGCACGTGTGTAT, the “relative binding free energy” value is -0.04 kcal/mol.
For the sequence CTGGTCACGTGGAGTG, the “relative binding free energy” value turned out to be 0.04 kcal/mol.
As for TTGGGCACGTGAGAGT, the figure is 0.12 kcal/mol.
On to CAGTGCACGTGTGAGT, for which the “relative binding free energy” value is 0.01 kcal/mol.
For the sequence AATGGCACGTGGTTTA, the “relative binding free energy” value is -0.11 kcal/mol.
As for ATGTTCACGTGGGATG, the “relative binding free energy” value turned out to be 0.19 kcal/mol.
To GTTAGCACGTGGCTAG belongs -0.09 kcal/mol.
Consider GTCTGCACGTGGGGGG, for which the “relative binding free energy” value was -0.14 kcal/mol.
Regarding AATGTCACGTGTCTGG, the “relative binding free energy” value is 0.2 kcal/mol.
For GCATACACGTGTGTGT, the “relative binding free energy” value is 0.14 kcal/mol.
Regarding CGGGTCACGTGGGTCT, the “relative binding free energy” value is -0.04 kcal/mol.
On to GTCAGCACGTGGTGTT, for which the “relative binding free energy” value is -0.03 kcal/mol.
Turning to TATTGCACGTGAGCTT, the “relative binding free energy” value was found to be 0.23 kcal/mol.
For TCGTTCACGTGAATTT, the “relative binding free energy” value was 0.39 kcal/mol.
For the sequence TTGCACACGTGGGATG, the “relative binding free energy” value was -0.13 kcal/mol.

The values are drawn from the BET-seq Pho4 binding data (Le et al. 2018).
